From the supplement of paper PMC4723716
± gives the uncertainty stated by the source. Whole data set: some 9,900 compounds, median “viability index relative to DMSO control” near 1, cut for the lowest 2% near 0.85. The list shows a part of the results.

System: Plasmodium falciparum NF54 stage V gametocytes
Assay: viability index relative to DMSO control (fraction); higher = less gametocyte killing
Settings: 2.5 µM, incubation time: 72 h
In short: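 Stage V gametocytes of P. falciparum NF54 were held in serum-free screening medium at 0.75% gametocytemia and 1.25% hematocrit, 10 µl per well of a 1,536-well plate, and exposed to compound at 2.5 µM for 72 hr at 37°C under low oxygen. A 3 µl mix of 2.5 µM MitoTracker Red CMXRos with 0.13% saponin was then added for one to two hours, after which one field per well was imaged and red particles of 20–70 µm2 were counted. The viability index equals this count divided by the plate mean from wells given solvent alone.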

[1] = library set: Broad Institute DOS
[2] = library set: Broad Institute Blood Stage

| Compound | viability index [1] | viability index [2] |
| --- | --- | --- |
| COc1cccc(S(=O)(=O)Nc2ccc3c(c2)C(=O)N(C)C[C@@H](OC)[C@H](C)CN(Cc2ccccc2F)[C@@H](C)CO3)c1 | 0.994 ± 0.043 | – |
| O=C(NCC[C@H]1CC[C@@H](NC(=O)c2ccncc2)[C@@H](CO)O1)Nc1ccc(Cl)cc1 | 1.086 ± 0.0063 | – |
| O=C1CCC(=O)N[C@@H](c2ccc3c(c2)OCO3)C/C=C\CCN1 | 0.996 ± 0.021 | – |
| O=C(C[C@@H]1CC[C@@H]2[C@H](COC[C@@H](O)CN2Cc2cc(F)cc(F)c2)O1)Nc1nccs1 | 1.05 ± 0.071 | – |
| COc1ccc(-c2ccc([C@H]3[C@H]4CNC[C@@H]3N4Cc3cncnc3)cc2)cc1 | 0.996 ± 0.058 | – |
| C[C@@H]1CN([C@@H](C)CO)C(=O)c2cccc(NC(=O)Nc3ccccc3)c2O[C@@H]1CN(C)C(=O)Nc1ccccc1 | – | 0.703 ± 0.052 |
| COC(=O)[C@H]1[C@H](CO)[C@H]2Cn3c(ccc(-c4ccccc4OC)c3=O)[C@H]2N1C(=O)c1cnccn1 | 1.02 ± 0.027 | – |
| COc1ccc2c3c([C@H](CO)N(C[C@]33CN(C3)C(=O)Cc3ccncc3)C(=O)Nc3ccc(F)cc3)n(C)c2c1 | 1.09 ± 0.05 | – |
| CCS(=O)(=O)NCC[C@@H]1CC[C@H](NS(=O)(=O)c2ccccc2C)[C@H](CO)O1 | 1.1 ± 0.064 | – |
| CCCNC(=O)N(C)C[C@@H]1Oc2cc(C#C[C@@H](C)O)ccc2S(=O)(=O)N([C@H](C)CO)C[C@H]1C | 1.08 ± 0.02 | – |
| O=C(C[C@@H]1C[C@H]2c3cc(NC(=O)Nc4ccccc4F)ccc3O[C@H]2[C@@H](CO)O1)NCc1ccccn1 | 0.992 ± 0.045 | – |
| CO[C@@H]1CN(C)C(=O)c2cc(NS(=O)(=O)c3cn(C)cn3)ccc2OC[C@@H](C)NC[C@@H]1C | 1.023 ± 0.0092 | – |
| Cc1ccc(S(=O)(=O)Nc2ccc3c(c2)CC(=O)N([C@@H](C)CO)C[C@@H](C)[C@@H](CN(C)S(=O)(=O)c2ccccc2)O3)cc1 | 0.9192 ± 0.0059 | – |
| CC(C)NC(=O)N(C)C[C@@H]1Oc2c(NS(=O)(=O)c3cccs3)cccc2C(=O)N([C@@H](C)CO)C[C@H]1C | 1.01 ± 0.083 | – |
| COc1ccc2c(c1)n(C)c1[C@H](CO)N(C[C@]3(CCN(C)CC3)c21)C(=O)c1ccc(F)cc1 | 1.05 ± 0.018 | – |
| C[C@@H]1CCCCO[C@@H](CN(C)S(=O)(=O)c2ccc(Cl)cc2)[C@H](C)CN([C@H](C)CO)C(=O)c2cc(NC(=O)Nc3ccc(C(F)(F)F)cc3)ccc2O1 | 1.0688 ± 0.0004 | – |
| CC(=O)N1CC[C@@H]2[C@H](CO)Nc3ccc(-c4ccccc4)cc3[C@@H]21 | 1.09 ± 0.09 | – |
| COc1cccc(CNC(=O)C[C@@H]2CC[C@@H]3[C@@H](COc4ccc(NC(=O)c5cccs5)cc4C(=O)N3C)O2)c1 | 1.07 ± 0.012 | – |
| CO[C@@H]1CN(C)C(=O)c2cc(NC(C)=O)ccc2OC[C@H](C)N(Cc2ccncc2)C[C@H]1C | 1.05 ± 0.03 | – |
| O=C(Nc1ccc(F)cc1)N1CC(=O)N2[C@H](CO)[C@H](c3ccc(C4=CCCC4)cc3)[C@H]2C1 | 1.05 ± 0.043 | – |
| COc1ccccc1-c1ccc([C@H]2[C@H](CO)N3CCCCN(C(=O)c4cccnc4)C[C@@H]23)cc1 | 1.08 ± 0.037 | – |
| C[C@@H]1CCCCO[C@H](CN(C)C(=O)CCCN(C)C)[C@@H](C)CN([C@H](C)CO)C(=O)c2cc(NS(=O)(=O)c3ccc(Cl)cc3)ccc2O1 | 1.07 ± 0.084 | – |
| COc1cccc(C(=O)Nc2ccc3c(c2)C(=O)N(C)[C@H]2CC[C@H](CC(=O)N[C@@H](C)c4ccccc4)O[C@H]2CO3)c1 | 1.14 ± 0.14 | – |

| Compound | viability index [1] | viability index [2] |
| --- | --- | --- |
| O=C(C[C@H]1CC[C@H]2[C@@H](COC[C@@H](O)CN2C(=O)c2ccncc2)O1)NCc1cc(F)cc(F)c1 | 0.988 ± 0.027 | – |
| Cc1ccc(S(=O)(=O)Nc2cccc3c2O[C@@H](CN(C)C(=O)Nc2ccc(C(F)(F)F)cc2)[C@@H](C)CN([C@H](C)CO)C3=O)cc1 | 1.08 ± 0.061 | – |
| CO[C@@H]1CN(C)C(=O)c2ccc(NS(=O)(=O)c3c(C)noc3C)cc2OC[C@H](C)NC[C@@H]1C | 1.11 ± 0.049 | – |
| CC(=O)N(CC1CCC1)C[C@@H]1N[C@@H](CO)[C@H]1c1ccc(C2=CCCC2)cc1 | 1.04 ± 0.024 | – |
| O=C(C[C@H]1CC[C@H]2[C@@H](COC[C@@H](O)CN2C(=O)Nc2ccc(Cl)cc2)O1)NCC1CCCCC1 | 1.02 ± 0.061 | – |
| O=C(C1CCOCC1)N1CC(=O)N2[C@@H](CO)[C@@H](c3ccc(C#CC4CCCCC4)cc3)[C@@H]2C1 | 1.05 ± 0.042 | – |
| N#C[C@H]1[C@@H](c2ccccc2C2=CCCCC2)[C@@H](CO)N1C(=O)CN1CCOCC1 | 1.12 ± 0.094 | – |
| O=C(C[C@H]1C[C@H]2c3cc(NC(=O)C4CCOCC4)ccc3O[C@H]2[C@@H](CO)O1)NCCN1CCCCC1 | 1.1 ± 0.066 | – |
| O=C(NCC1CCCCC1)[C@@H]1[C@@H](CO)[C@@H]2Cn3c(ccc(-c4ccc(F)cc4)c3=O)[C@H]1N2 | 1.04 ± 0.012 | – |
| COc1ccc2c3c([nH]c2c1)[C@H](CO)N(C[C@]31CCN(CC2CCCC2)CC1)S(C)(=O)=O | 0.875 ± 0.17 | – |
| C[C@H]1CN([C@@H](C)CO)S(=O)(=O)c2ccc(C#CC(C)(C)O)cc2O[C@H]1CN(C)Cc1ccc(F)cc1 | 1.07 ± 0.016 | – |
| COc1ccc2c3c([nH]c2c1)[C@@H](CO)N(C[C@]31CN(C1)C(=O)CN1CCOCC1)C(C)=O | 0.99 ± 0.027 | – |
| C/C=C/c1ccc([C@H]2[C@@H](CNC(C)=O)N(C(=O)Cc3ccncc3)[C@H]2CO)cc1 | 0.983 ± 0.1 | – |
| Cc1ccc(S(=O)(=O)NCC[C@@H]2CC[C@@H](NC(=O)c3cccnc3)[C@H](CO)O2)cc1 | 1.03 ± 0.12 | – |
| COc1ccc(NC(=O)N(C)C[C@@H]2OCCCC[C@@H](C)Oc3ccc(NC(=O)c4ccncc4)cc3C(=O)N([C@H](C)CO)C[C@H]2C)cc1 | 1.14 ± 0.022 | – |
| COc1ccccc1NC(=O)N[C@H]1CC[C@@H](CCNS(=O)(=O)c2ccc(Cl)cc2)O[C@@H]1CO | 0.977 ± 0.046 | – |
| Cc1ccccc1-c1ccc([C@@H]2[C@@H]3CN(Cc4cncnc4)C[C@H]2N3)cc1 | 1.08 ± 0.018 | – |
| C[C@H](NC(=O)C[C@H]1CC[C@H]2[C@@H](COC[C@H](O)CN2C(=O)Nc2cccc(Cl)c2)O1)c1ccccc1 | 1.07 ± 0.082 | – |
| CO[C@@H]1CN(C)C(=O)c2cc(NS(=O)(=O)c3ccc(Cl)cc3)ccc2OC[C@H](C)N(C(=O)NC(C)C)C[C@H]1C | 1.06 ± 0.04 | – |
| C[C@H]1CN([C@@H](C)CO)C(=O)c2cc(C#Cc3ccccc3)cnc2O[C@@H]1CN(C)C(=O)c1ccccc1 | 0.919 ± 0.071 | – |
| CN1CCN(C(=O)C[C@H]2CC[C@@H]3[C@@H](COc4ccc(NC(=O)C5CCOCC5)cc4C(=O)N3C)O2)CC1 | 1.149 ± 0.0076 | – |
| COc1ccc(S(=O)(=O)N2C[C@H](O)COC[C@@H]3O[C@@H](CC(=O)N[C@H]4CCN(Cc5ccccc5)C4)CC[C@H]32)cc1 | 0.998 ± 0.093 | – |
| C[C@@H]1COCc2cnnn2CC[C@@H](Cc2ccccc2)C(=O)N1 | 0.969 ± 0.037 | – |

| Compound | viability index [1] | viability index [2] |
| --- | --- | --- |
| C[C@@H]1CN([C@H](C)CO)C(=O)c2cc(NS(=O)(=O)c3cccs3)ccc2O[C@@H]1CN(C)S(=O)(=O)c1ccc(Cl)cc1 | 0.991 ± 0.095 | – |
| O=C(C1CCCCC1)N1CC2(C1)[C@H](c1ccccc1)[C@H](CO)N2CCC(F)(F)F | 1.14 ± 0.032 | – |
| O=C(NC[C@H]1[C@H](c2ccccc2)[C@H](CO)N1C(=O)C1CCC1)NC1CCCC1 | 0.995 ± 0.038 | – |
| COc1cccc(C#Cc2ccc([C@@H]3[C@@H](C#N)N(C(=O)C4CCCCC4)[C@H]3CO)cc2)c1 | – | 0.7 ± 0.1 |
| Cc1ccccc1S(=O)(=O)N1CCCCN2[C@@H](CO)[C@@H](c3ccc(C#CCN(C)C)cc3)[C@@H]2C1 | 0.947 ± 0.032 | – |
| O=C(Cc1ccccc1)NC[C@H]1N[C@H](CO)[C@@H]1c1ccc(C2=CCCC2)cc1 | 1.01 ± 0.032 | – |
| CN(C)C(=O)[C@@H]1[C@@H](CO)[C@@H]2Cn3c(ccc(/C=C/c4ccccc4)c3=O)[C@@H]2N1C(=O)c1cccnc1 | 1.08 ± 0.033 | – |
| COc1ccccc1CN1[C@@H]2Cn3c(cccc3=O)[C@H]1[C@@H](C(=O)N1CCc3ccccc3C1)[C@@H]2CO | 1.068 ± 0.0069 | – |
| CN(C)C(=O)c1cc2c(c(-c3cccc(/C=C/c4ccccc4)c3)n1)[C@H](CCO)N([S@@](=O)C(C)(C)C)C2 | 0.973 ± 0.089 | – |
| CN(C)C(=O)c1cccc(-c2ccccc2[C@@H]2[C@@H](C#N)N(C(=O)C3CCCCC3)[C@H]2CO)c1 | 1.11 ± 0.11 | – |
| CCCNC(=O)N1CC(=O)N2[C@H](CO)[C@H](c3ccc(-c4ccc(F)cc4)cc3)[C@@H]2C1 | 0.963 ± 0.026 | – |
| CO[C@@H]1CN(C)C(=O)c2ccc(NS(C)(=O)=O)cc2OC[C@@H](C)N(C(=O)CN(C)C)C[C@H]1C | 0.977 ± 0.055 | – |
| COC(=O)C[C@H]1CC[C@@H]2[C@@H](COc3ccc(NC(=O)Nc4c(C)noc4C)cc3C(=O)N2C)O1 | 0.983 ± 0.14 | – |
| O=C(C[C@H]1CC[C@@H]2[C@H](COC[C@H](O)CN2CC2CCOCC2)O1)NCc1ccc(Cl)cc1 | 1.12 ± 0.015 | – |
| C/C=C/c1ccc([C@H]2[C@H](CO)N3C(=O)CN(S(=O)(=O)c4ccccc4)C[C@@H]23)cc1 | 1.002 ± 0.0044 | – |
| COc1ccc(NC(=O)N(C)C[C@H]2Oc3c(NC(=O)CCCCCC(=O)Nc4ccccc4N)cccc3C(=O)N([C@H](C)CO)C[C@@H]2C)cc1 | 0.985 ± 0.11 | – |
| O=C(Nc1cccc(Cl)c1)N[C@@H]1CC[C@@H](CCn2cc(Cc3ccccc3)nn2)O[C@@H]1CO | 1.09 ± 0.079 | – |
| C[C@H](CO)N1C[C@H](C)[C@H](CN(C)S(=O)(=O)c2cn(C)cn2)OCc2ccccc2-c2ccccc2C1=O | 0.955 ± 0.1 | – |
| C[C@@H]1CN([C@@H](C)CO)S(=O)(=O)c2ccc(-c3ccc(F)cc3)cc2O[C@@H]1CN(C)Cc1ccccc1C(=O)O | 1.0249 ± 0.00085 | – |
| CN(C)C(=O)C[C@@H]1C[C@@H]2c3cc(NC(=O)c4cccnc4)ccc3O[C@@H]2[C@H](CO)O1 | 1.126 ± 0.0019 | – |
| O=C1CNC[C@@H]2[C@@H](c3ccc(C4=CCCC4)cc3)[C@@H](CO)N12 | 0.996 ± 0.074 | – |
| CCS(=O)(=O)Nc1ccc2c(c1)C(=O)N(C)[C@H]1CC[C@H](CC(=O)NCc3ccc(OC)cc3)O[C@@H]1CO2 | 0.933 ± 0.14 | – |
| CCC(=O)N1CC(=O)N2[C@H](CO)[C@H](c3ccc(-c4ccc(C#N)cc4)cc3)[C@@H]2C1 | 1.003 ± 0.0037 | – |
